Measurements published in PubChem BioAssay AID686978 (National Center for Advancing Translational Sciences (NCATS), 2013).
Among all 420,000 compounds or so, about 64,000 (15%) were called active. Inconclusive means that the source gave no clear call. Such entries were picked first, then a sample of the others. Calls come from the whole dose curve; as a rule, active = well fitted inhibition curve with a large enough effect; inconclusive = small, poorly fitted or top-dose-only effect; inactive = flat fitted curve, though single readings scatter. Potencies of inconclusive entries are left out as doubtful fits.

Test: qHTS for Inhibitors of human tyrosyl-DNA phosphodiesterase 1 (TDP1): qHTS in cells in absence of CPT; note: nearly all actives have a fitted effect of over 55% in size
Settings: DT40 Tdp1-/- hTDP1 cells, no CPT, ATP luminescence, 48 h; activity change, negative = growth inhibition: at 46.2 µM (top of the series) unless noted
Method in brief: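 Growth kinetics read by CellTiter-Glo luminescence after ≥48 hr at 37 °C. Cells: DT40 Tdp1-/- stably carrying human TDP1, 400 per well, compound exposure in the absence of CPT (DMSO vehicle).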
% is set by controls: 0 for no effect and ±100 for the full control effect; potency is the fitted concentration of half-maximal effect; tags give direction and shape of the fitted curve.

Compound	Potency	activity change, negative = growth inhibition
COc1ccc(OC)c(C2SCCN2S(C)(=O)=O)c1 (stereo unspecified)	inactive	–
Brc1ccc(-n2cnc(-c3ccccc3)c2)cc1	inconclusive [inhibitor, single point]	–
CC(=O)NCC(=O)N1CCCC(C(=O)c2ccc3c4c(cccc24)CC3)C1 (stereo unspecified)	inconclusive [inhibitor, partial curve]	–
COc1cccc(/C=N/NC(=O)CSc2nnc(C)n2-c2ccccc2)c1O	inconclusive [inhibitor, single point]	–
CC1CCCCN1S(=O)(=O)c1ccc2c(c1)CCN2C(=O)C1CC1 (stereo unspecified)	inactive	–
CCOC(=O)C1CCN(C(=O)NS(=O)(=O)c2ccc(C)cc2)CC1	inactive	–
Cc1ccc(C(=O)O/N=C(\N)Cc2cccs2)c(Cl)c1	inactive	–
O=C(C[C@@H]1C[C@H]2c3cc(NC(=O)NC4CCCCC4)ccc3O[C@H]2[C@H](CO)O1)NC1CCCCC1	active: 14.6 µM	–
Cc1ccc[n+](C(C)C(=O)Nc2ccc(C)c(C)c2)c1 (stereo unspecified)	inactive	–
CC[C@@H]1CC=C[C@H]2[C@H]1C(=O)N(Cc1ccccc1)[C@H]2c1ccc(C(F)(F)F)cc1	inconclusive [inhibitor, single point]	–
C[C@@H]1CN([C@H](C)CO)C(=O)c2cc(Br)cnc2O[C@@H]1CN(C)C(=O)NC1CCCC1	inactive	–
Cc1cc(Cl)ccc1-c1nc(NC(C)C)nc2ccsc12	active: 23.1 µM	–
CCSc1ncc(/C=N/Nc2ccc(Cl)cc2)n1C	inconclusive [inhibitor, partial curve]	–
Cc1cccc(/C=N\Nc2cn[nH]c(=O)c2Cl)c1	inactive	–
CN1CCN(CC(O)COc2ccc(S(=O)(=O)N3CCOCC3)cc2)CC1 (stereo unspecified)	inactive	–
CCCCc1nn2c(=O)cc(COC(=O)C(C)Oc3ccccc3)nc2s1 (stereo unspecified)	inactive	–
CCCN1C2CCCC1CC(NC(=O)Nc1ccc(C(C)C)cc1)C2 (stereo unspecified)	inconclusive [inhibitor, single point]	–
CCOc1ccc(-n2cc(C(=O)c3cc(Cl)ccc3O)cc(C#N)c2=O)cc1	inactive	–
CCOC(=O)NC(NCc1ccccc1Cl)(C(F)(F)F)C(F)(F)F	inactive	–
COc1cc2c(NC3CCN(C(C)C)CC3)nc(N3CCCN(C)CC3)nc2cc1OCCCN(C)C	active: 6.31 µM	–
COc1ccc(C(=O)NCCCNC(=O)c2cc3ccccc3[nH]2)cc1OC	–	inconclusive: -35% [inhibitor]
CC(CCc1ccccc1)NC(=O)CN(C)Cc1ccc(F)cc1 (stereo unspecified)	inconclusive [inhibitor, single point]	–
CCOc1cccc(C2/C(=C(/O)c3ccc4c(c3)CC(C)O4)C(=O)C(=O)N2Cc2cccnc2)c1 (stereo unspecified)	inactive	–
Cc1ccc(-c2csc(=Nc3cccnc3)n2CCCN2CCCC2=O)cc1C	active: 18.4 µM	–
CCCc1nnc(NC(=O)CSc2nc3ccccc3[nH]2)s1	inconclusive [inhibitor, single point]	–
Cc1cccc(N2CC(C(=O)NCc3ccco3)CC2=O)c1C (stereo unspecified)	inactive	–

Compound	Potency	activity change, negative = growth inhibition
CC(=O)Nc1cccc(NC(=O)Nc2cccc(F)c2)c1	–	inconclusive: -33.6% [inhibitor]
COc1ccc(Cl)cc1NC(=O)Cn1nc(C(F)(F)F)c2c1CCC2	inconclusive [inhibitor, single point]	–
COc1ccc(CCC(=O)NCc2nc3cccnc3n2Cc2cccc(OC)c2)cc1	inconclusive [inhibitor, single point]	–
Cc1ccc(Nc2nc(N)nc(CN3CCCCCC3)n2)c(C)c1	inconclusive [inhibitor, partial curve]	–
CC(C)(C)Nc1nc(NN)nc(NC(C)(C)C)n1	inconclusive [inhibitor, single point]	–
CC(=O)c1cc2c(cc1NC(=O)c1ccc(C)cc1)OCCO2	inconclusive [inhibitor, single point]	–
COc1ccc(S(=O)(=O)N2CCCC2C(=O)Nc2nc3c(s2)CCCC3)cc1 (stereo unspecified)	–	inconclusive: -33.5% [inhibitor]
CC(C)c1ccc(NC(=S)NNC(=O)C2CC2)cc1	inactive	–
Cc1[nH]c2ccccc2c1/C=N/NC(=O)Nc1ccccc1	inconclusive [inhibitor, single point]	–
CN(Cc1ccccc1)S(=O)(=O)c1ccc(Cl)c(C(=O)N2CCC(C(N)=O)CC2)c1	active: 10.3 µM	–
CCCC(=O)N1CCC1(C)C(=O)NCc1ccccc1SC (stereo unspecified)	inactive	–
COc1ccc(NC(=O)c2c3c(nc4ccccc24)CCC3)cc1	inactive	–
Nc1nonc1-n1nnc(C(=O)N/N=C/c2ccoc2)c1CSc1ccccc1	inactive	–
CC(C)C(=O)N(c1ccc2oc(=O)sc2c1)S(=O)(=O)c1ccccc1	inconclusive [inhibitor, single point]	–
COc1ccc(OC)c(N/C(N)=N/c2nc(C)cc(C)n2)c1	active: 18.4 µM	–
O=C(Nc1ccccc1N1CCN(C(=O)c2ccccc2)CC1)c1ccccc1Cl	inconclusive [inhibitor, single point]	–
COc1ccc(OC)c(C2NC(=O)CCC2[N+](=O)[O-])c1 (stereo unspecified)	inactive	–
CCOC(=O)N1CCc2c(sc3c2c(=O)n(-c2ccc(CC)cc2)c(=O)n3CC(=O)c2ccccc2)C1	inactive	–
Cc1ccc(NC(=O)C2CCN(C(=O)c3cnn(-c4ccccc4)c3-n3cccc3)CC2)cc1	active: 13 µM	–
COCCNC(=O)c1ccccc1NC(=O)Cc1ccccc1	inactive	–
Cc1cc(NCc2ccccc2)n2ncnc2n1	active: 11.6 µM	–
O=C(C[n+]1cc(-c2ccc(Cl)c(Cl)c2)n2c1CCC2)N1c2ccccc2Sc2ccccc21	active: 23.1 µM	–
CCCCCCN1C[C@H](O)[C@@H](n2cc(C3CC3)nn2)C[C@@H]1c1ccccc1	active: 23.1 µM	–
Cc1ccccc1OCC(=O)NNC(=S)NC(=O)c1ccccc1[N+](=O)[O-]	inconclusive [inhibitor, single point]	–
C/C=C/c1ccc(OCC(O)CNCC(c2ccc(OC)cc2)N(C)C)c(OC)c1 (stereo unspecified)	inconclusive [inhibitor, single point]	–
